Assay results taken from PubChem BioAssay AID463173 (ICCB-Longwood Screening Facility, Harvard Medical School, 2010).
The campaign covered roughly 52,000 compounds. About 4,300 (8.3%) were called active. Rule as the data show it: active = survival mostly below about 52% (no sharp cut-off); inactive = mostly above about 56%. Some of the results follow.

System: DeltatarO mutant
Test: S. aureus survival, RN4220 and DeltatarO strains – OD600, teichoic acid synthesis inhibitors, primary screen (AID 463173)
Details: S. aureus RN4220 wild type/DeltatarO growth, OD600, 18 h, active compounds read low, screened at 18.75 µg/mL (by protocol)

Compound | survival
Cc1ccc(NC(=O)CSc2ncc(S(=O)(=O)c3ccc(C(C)C)cc3)c(=O)[nH]2)cc1C | inactive: 87%
CCOc1ccccc1CN(CCc1ccc2c(c1)OCO2)Cc1ccccn1 | inactive: 77%
CCC1CCCCN1CCCNC(=O)c1ccc2c(c1)N(Cc1ccccc1F)C(=O)c1ccccc1S2(=O)=O (stereo not given) | inactive: 133%
CC1CCN(C(=O)CSc2nc(-c3ccc(C(C)C)cc3)no2)CC1 | inactive: 76%
COc1ccc(CCNC(=O)c2cc(C)nc3c2c(C)nn3-c2ccccc2)cc1OC | inactive: 92%
CCc1ccc(NC(=O)c2cc(S(=O)(=O)N3CCCC3)ccc2F)cc1 | inactive: 95%
Cc1ccc(C(=O)Nc2ccc3c(c2)N(C)C(=O)c2ccccc2S3)cc1 | inactive: 97%
CCCS(=O)(=O)N1CC(=O)N(c2ccccc2F)C(C)(C(=O)NC2CCCCCC2)C1 (stereo not given) | inactive: 83%
COc1cc(CNC(=O)CSCc2nc3cccnc3n2C2CCCCC2)cc(OC)c1OC | inactive: 116%
CC(C)=NNS(=O)(=O)c1ccc(N2CCCC2=O)cc1 | inactive: 71%
CCOc1cc(C#N)c(NC(=O)c2cccc(S(=O)(=O)N3CCOCC3)c2)cc1OCC | inactive: 118%
O=C(CCNS(=O)(=O)c1ccc2c(c1)CCCC(=O)N2)NCc1ccccc1Cl | inactive: 87%
CCC(=O)N1CCc2cc(CNC(=O)Nc3ccccc3Cl)ccc21 | inactive: 78%
Cc1ccc(/C=[N+](\[O-])c2ccc(N(C)C)cc2)c2nsnc12 | inactive: 52%
Cc1nc2sccn2c(=O)c1S(=O)(=O)Nc1ccc(N2CCN(S(C)(=O)=O)CC2)cc1 | inactive: 127%
CCC(=O)N1c2ccccc2CC1C(=O)NCCN1CCN(c2cccc(C)c2C)CC1 (stereo not given) | inactive: 77%
Cc1ccc(-c2nc3ccccc3o2)cc1NC(=O)c1cccc2c(Cl)cccc12 | active: 47%
O=C(Nc1ccc(N2CCCCC2)cc1)c1cccnc1 | inactive: 106%
Cc1cccc(Nc2nc(-c3ccccc3)c3cc(C)ccc3n2)c1 | active: 3%
O=[N+]([O-])c1cc(-c2nc(-c3ccccc3)no2)ccc1N1CCCC1 | inactive: 63%
Cc1ccccc1NCc1cccn1-c1nnc(N2CCOCC2)s1 | inactive: 112%
Cc1nc2cc(-c3ccc(Br)cc3)[nH]n2c(=O)c1Cl | inactive: 79%
CC(C)OCCCn1c(SCC(=O)Nc2ccc(F)cc2)nc2c(sc3ccccc32)c1=O | inactive: 108%
Cc1ccc(NC(=O)CSc2nnc3[nH]c(=O)cc(C)n23)cc1Cl | inactive: 82%
Cc1sc2c(c1C)c(=O)n(-c1ccccc1)c(=O)n2CC(=O)c1ccc(Cl)cc1 | inactive: 71%
